Reference: ChEMBL document CHEMBL4888484, “Replenishing the malaria drug discovery pipeline: Screening and hit evaluation of the MMV Hit Generation Library 1 (HGL1) against asexual blood stage Plasmodium falciparum ,using a nano luciferase reporter read-out” (2022)
About 540 (0.36%) of roughly 150,000 compounds showed an effect of 50% or more. The list shows a part of the results.

System: Plasmodium falciparum
Test: Primary screen in NF54 nanoGlo assay, in single point, at 2uM, 72h; a lower Z score goes with more inhibition
Type: functional, Erythrocyte
Details: timepoint 72 hour

Structure (SMILES) | % Inhibition | Z score
O[C@@H](CN(c1ccc2nccnc2n1)C1CC1)c1ccc(F)cc1 | -8% | 1.39
O=C(C1CC=CCC1)N1CCCC1c1nc(-c2ccccc2F)c[nH]1 (configuration not stated) | -2% | 0.35
Cc1nc(N)sc1C(=O)NCC[C@H]1CCCCO1 | -2% | 0.4
O=C(COc1ccc2ccccc2c1)N1CCC(=C2CC2)CC1 | -11% | 1.26
C[C@H]1CS(=O)(=O)C[C@H]1NC(=O)C1(C)CC=CCC1 (some centres not stated) | -11% | 0.94
Cn1ccnc1COC(=O)c1ccc(N2CCCC2)nc1 | -9% | 1.04
O=C(NCc1cccnc1)c1cn2c(n1)C(=O)N[C@H](c1ccc(F)cc1)C2 | -5% | 0.78
COc1ccc(CC(=O)Nc2ccnn2C2CCCCC2)cc1C | -8% | 1.02
COc1cc2c(cc1C(=O)N[C@@H]1COCC[C@@H]1OCCN(C)C)CCC2 | -11% | 1.23
Cn1cnn(CC(=O)NC2CCCC2)c1=O | -10% | 1.28
CCCC[C@H](CC)CNC(=O)c1cnc2c(-c3ccc4c(c3)OCO4)cnn2c1C | -5% | 0.83
O=c1[nH]nc([C@@H]2CCCO2)cc1C(F)(F)F | -5% | 0.78
Cc1cc(C)n(CC(=O)N2CCC[C@H]2c2nc(CCOCc3ccccc3)no2)n1 | -8% | 1
c1cc2c(cc1OCCNCc1nc3c(s1)CCC3)OCO2 | -16% | 2.02
CCOC(=O)CC1(NC(=O)c2cn(Cc3ccc(Cl)cc3)nn2)CCCCC1 | 1% | -0.09
COCC(=O)N[C@@H]1CC[C@@]2(OC)CCN(C(=O)Cn3nc(C)cc3C)[C@H]2C1 | -16% | 1.45
O=C(c1c[nH]nc1-c1ccsc1)N1CCn2nc(C3CC3)cc2C1 | -5% | 0.54
O=C(c1ccc(Cl)cc1OC1CCN(Cc2cc(F)cc(F)c2)CC1)N1CCCCC1 | -5% | 0.7
Cc1nnc2ccc(N3CCC4(CCCCC4)C3)nn12 | 17% | -1.93
CC[C@@H](Cn1cnc(-c2ccccc2)c1-c1nccs1)N1CCOCC1 | 1% | -0.18
O=C(NCc1noc(-c2ccco2)n1)c1cnc2ccccn2c1=O | -5% | 0.87

Structure (SMILES) | % Inhibition | Z score
O=C(NCCn1cccn1)N1CCC=C(c2ccccc2)C1 | -5% | 0.91
Cc1cc(C)n(-c2nc3c(c(=O)n2CC(=O)NCc2ccc4c(c2)OCO4)CCCC3)n1 | 0% | 0.01
O=C(c1cc[nH]n1)N1CCN(c2nncc3ccccc23)CC1 | -27% | 5.71
CC[C@@H](C(=O)N1CCN(c2nccs2)CC1)n1cccn1 | -7% | 0.95
COCCNc1nc(-c2cccc(C)c2)c2c(N)n(C(C)(C)C)nc2n1 | -10% | 1.78
Cc1nc(NC2CC(C)(C)C2)cc(-c2cccnc2)n1 | -8% | 1.6
CCS(=O)(=O)N1CCC[C@@](OC)(C(F)(F)F)C1 | -12% | 2.4
CC(C)C(=O)N1C[C@@H]2COCCN2C2(CN(C(=O)Nc3ccc(F)cc3)C2)C1 | -10% | 1.44
CCOC(=O)N1CCN(C(=O)COc2ccc3c(C(C)C)cc(=O)n(CC)c3c2)CC1 | -7% | 1.25
COc1ccc(CNC(=O)OCc2nccnc2C(=O)Nc2ccc(Br)cn2)cc1 | -5% | 0.97
Cc1nc(C(=O)NCC2CCN(Cc3scnc3C)CC2)cs1 | 3% | -0.49
CC(C)c1nc2c([nH]1)C[C@@H](C(=O)N1CCCC(F)(F)CC1)CC2 | -6% | 0.94
COCc1c(C(=O)N2CC[C@H](CCc3noc(C4CC4)n3)C2)noc1C | -1% | 0.22
Cc1oc2ccccc2c1C(=O)N1CCCC[C@@H]1CCS(C)(=O)=O | -5% | 1.03
O=C(CCC1CCCC1)NCc1cccc(-c2ncc(-c3ccc(F)cc3)[nH]2)c1 | 2% | -0.26
CCc1nc(C)c(CN2CC[C@@]3(CCCN(Cc4cccc(OC)c4OC)C3)C2)[nH]1 | 1% | -0.07
COc1ccc(Oc2c(Cl)cnn(-c3c(Cl)cc(F)cc3Cl)c2=O)cc1 | -5% | 0.67
O=C(c1cccc(F)c1)N(Cc1c(-c2ccccc2)noc1N1CCCCC1)C1CC1 | -6% | 0.88
CC(NCC(O)c1cc(Cl)c2c(c1)OCCO2)c1ccc(C(F)F)nc1 (configuration not stated) | 6% | -0.68
COc1ccccc1N1CCN(C(=O)c2nccnc2NC(=O)c2ccccc2)CC1 | 2% | -0.42
